The list shows a part of the results.
Assays:
HSkMC = human skeletal muscle cells; experiment: cytotoxicity call (relative viability < 0.9); settings: 10 µM
HepG2 = experiment: cytotoxicity call (relative viability < 0.9); settings: 10 µM
S. aureus RN4220 = experiment: growth inhibition call (relative growth <= 0.2); settings: 50 µM

SMILES | cytotoxicity call (HSkMC) | cytotoxicity call (HepG2) | growth inhibition call (S. aureus RN4220)
C[C@@H]1CN([C@H](C)CO)C(=O)Cc2cc(NS(=O)(=O)c3ccc(F)cc3)ccc2O[C@H]1CN(C)S(=O)(=O)c1ccccc1 | inactive | inactive | inactive
C[C@@H]1CN([C@H](C)CO)C(=O)c2cc(NC(=O)Cc3ccccc3)ccc2O[C@@H](C)CCCCO[C@@H]1CN(C)S(=O)(=O)c1ccc(F)cc1 | inactive | inactive | inactive
C[C@@H]1CN([C@@H](C)CO)C(=O)c2cc(NS(C)(=O)=O)ccc2O[C@@H]1CN(C)S(C)(=O)=O | inactive | inactive | inactive
C[C@@H]1CN([C@@H](C)CO)C(=O)c2cc(/C=C/c3ccccc3)cnc2O[C@H]1CN(C)C(=O)Nc1ccc(C(F)(F)F)cc1 | inactive | inactive | inactive
O=C(C[C@@H]1CC[C@H]2[C@@H](COC[C@@H](O)CN2C(=O)c2ccncc2)O1)NCc1ccc(-c2ccccc2)cc1 | inactive | inactive | inactive
COc1ccc(NC(=O)N(C)C[C@H]2Oc3ncc(C#CC(C)C)cc3C(=O)N([C@@H](C)CO)C[C@@H]2C)cc1 | inactive | inactive | inactive
O=C(C[C@@H]1CC[C@H]2[C@@H](COC[C@@H](O)CN2C(=O)Nc2ccc(Cl)c(Cl)c2)O1)NCc1ccc(Cl)c(Cl)c1 | inactive | active | inactive
C[C@H](CO)N1C[C@H](C)[C@@H](CN(C)Cc2ccncc2)Oc2c(NC(=O)Nc3ccc(C(F)(F)F)cc3)cccc2C1=O | inactive | inactive | inactive
COc1ccc(S(=O)(=O)N[C@H]2C=C[C@H](CC(=O)N3CCN(c4ccccc4)CC3)O[C@@H]2CO)cc1 | inactive | inactive | inactive
Cc1ccc(S(=O)(=O)Nc2ccc3c(c2)C(=O)N([C@@H](C)CO)C[C@H](C)[C@@H](CN(C)C(=O)Nc2ccc4c(c2)OCO4)OCCCC[C@@H](C)O3)cc1 | inactive | inactive | inactive
N[C@@H](CN(O)[N+][O-])C(=O)O | inactive | inactive | inactive
COc1cc(C[C@H]2CO[C@H](c3ccc(O)c(OC)c3)[C@@H]2CO[C@H]2O[C@@H](CO)[C@@H](O)[C@@H](O)[C@@H]2O)ccc1O | inactive | active | inactive
C[C@H](CO)N1C[C@H](C)[C@@H](CN(C)C(=O)Nc2ccccc2)Oc2c(NS(=O)(=O)c3cn(C)cn3)cccc2C1=O | inactive | inactive | inactive
C[C@H](CO)N1C[C@H](C)[C@@H](CN(C)C(=O)Nc2ccccc2)Oc2ccc(NC(=O)Cn3cnnn3)cc2CC1=O | inactive | inactive | inactive
C[C@H]1CCCCO[C@H](CN(C)Cc2ccc(Cl)c(Cl)c2)[C@@H](C)CN([C@@H](C)CO)C(=O)c2cc(NC(=O)Nc3ccc4c(c3)OCO4)ccc2O1 | inactive | active | inactive
O=C(O)c1cccc(C(=O)O)n1 | inactive | inactive | inactive
CC(C)CC#Cc1cnc2c(c1)C(=O)N([C@@H](C)CO)C[C@@H](C)[C@H](CN(C)S(=O)(=O)c1ccccc1)O2 | inactive | inactive | inactive
Nc1nc(F)nc2c1ncn2[C@@H]1O[C@H](COP(=O)(O)O)[C@@H](O)[C@@H]1O | inactive | inactive | inactive
Cn1cc(-c2[nH]c3cc(NC(=O)[C@H](N)C4CCCCC4)cc4c3c2C=NNC4=O)cn1 | active | active | inactive
O=C(O)CCCCc1ccc(F)cc1 | inactive | inactive | inactive
Cc1noc(C)c1S(=O)(=O)Nc1ccc2c(c1)C(=O)N([C@@H](C)CO)C[C@H](C)[C@@H](CN(C)Cc1ccc(C(F)(F)F)cc1)OCCCC[C@@H](C)O2 | inactive | inactive | inactive
C[C@H]1CN([C@@H](C)CO)C(=O)c2cccc(NC(=O)NC3CCCCC3)c2O[C@@H]1CN(C)S(C)(=O)=O | inactive | inactive | inactive
O=C(C[C@@H]1CC[C@@H]2[C@H](COC[C@@H](O)CN2S(=O)(=O)c2ccc(Cl)cc2)O1)N[C@@H]1CCN(Cc2ccccc2)C1 | inactive | inactive | inactive
CO[C@H](C(=O)N(C)C[C@H]1OCc2ccccc2-c2c(n(C)c3ccccc23)C(=O)N([C@@H](C)CO)C[C@@H]1C)c1ccccc1 | inactive | inactive | inactive
C[C@@H]1CN([C@H](C)CO)S(=O)(=O)c2ccc(-c3cccc(C#N)c3)cc2O[C@H]1CN(C)C(=O)c1cccnc1 | inactive | inactive | inactive
